Results reported in PubChem BioAssay AID1240 (Sanford-Burnham Center for Chemical Genomics, 2008).
In all, about 50,000 compounds went through this assay and about 800 (1.6%) showed an effect of 50% or more. The list shows a part of the results.

Target: Bcl-2-like protein 10 (Homo sapiens) (UniProt Q9HD36)
Test: Phenotype converters, Bcl-B/TR3 peptide binding displacement, primary biochemical FP (AID 1240);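 also: 0% = Bcl-B with tracer peptide and DMSO and 100% = tracer peptide lacking Bcl-B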
Details: GST-Bcl-B / FITC-TR3 peptide fluorescence polarization; stronger effect = higher value; compound at 3.75 mg/L

Sequence of UniProt Q9HD36 (Q9HD36 whole entry, looked up): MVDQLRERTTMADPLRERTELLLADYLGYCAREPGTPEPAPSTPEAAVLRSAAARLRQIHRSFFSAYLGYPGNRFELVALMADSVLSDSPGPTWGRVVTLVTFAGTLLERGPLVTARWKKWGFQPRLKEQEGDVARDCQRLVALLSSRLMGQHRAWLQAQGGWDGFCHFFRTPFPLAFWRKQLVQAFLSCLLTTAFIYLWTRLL

SMILES | displacement [%]
CCOc1ccc(C(=O)N2CCN(Cc3ccccc3)CC2)cc1 | 12.4
O=C(NC1CCCCC1)ON=C(c1ccccc1)c1ccccc1 | 12.4
O=C(COc1ccc(Cl)cc1)NNC(=O)c1ccccc1[N+](=O)[O-] | -3.5
COc1ccc(C(=O)NCCOc2ccc(C)cc2)cc1OC | 6.1
O=C(CSc1ncn[nH]1)Nc1cccc(C(F)(F)F)c1 | 1.1
Cc1ccc(OCC(=O)Nc2ccccc2-c2ccccc2)c(Br)c1 | -6
CC(=O)c1ccc(NC(=O)c2cc(S(=O)(=O)N3CCOCC3)ccc2Cl)cc1 | -8.5
CCCC1C(=O)CC(c2ccccc2)N(C)C1c1ccccc1 (stereo unspecified) | 6.8
Oc1ccc2ccccc2c1CN1CCOCC1 | 16.6
CC1=C(C(=O)c2ccccc2)C(c2ccc([N+](=O)[O-])cc2)NC(=O)N1 (stereo unspecified) | -11.6
CCN(CC)C(=O)c1c(NC(=O)c2ccc([N+](=O)[O-])cc2)sc2c1CCCCC2 | 4.6
CC(C)=N/N=C1/NC(=O)C(CC(=O)Nc2cc(Cl)ccc2C)S1 (stereo unspecified) | -13.5
COc1cc(C=O)ccc1OCc1ccccc1COc1ccc(/C=C2/SC(=S)NC2=O)cc1OC | 12.7
C=CCOc1cccc(/C=N/NS(=O)(=O)c2ccc(Cl)cc2)c1 | 7.1
CCOc1cc(/C=C2\C(=O)NC(=O)N(c3ccc(Cl)cc3)C2=O)c(Br)cc1OC | -49.7
C=CCn1cc(F)c(=O)n(CC=C)c1=O | 12.4
O=S(=O)(NCc1ccc(F)cc1)c1ccccc1 | -18.5
O=C(Nc1ccc(Cl)c([N+](=O)[O-])c1)c1ccc(-c2ccccc2)cc1 | 0.1
Cc1ccc(N(CC(=O)N2CCOCC2)S(C)(=O)=O)cc1 | 2.4
Cc1cccc(C(C)C)c1NC(=O)CCCOc1ccc(Cl)cc1Cl | 12.8
O=C(Nc1cccc(Cl)c1)c1cccc(NC(=O)c2cccs2)c1 | -1.3
Oc1ccc(-c2cn3ccccc3n2)cc1O | 23.6
CC(=O)Nc1cc(C(N)=O)c(Cl)cc1Cl | -9.1
COc1cc(CN2CCN(C3C4CC5CC(C4)CC3C5)CC2)cc(OC)c1OC (stereo unspecified) | 2

SMILES | displacement [%]
Cc1ccc(Cl)cc1NC(=O)c1cncc(Br)c1 | 11.1
O=C(Nc1cccc2ccccc12)C1C2CCC3C(CCC21)C3(Cl)Cl (stereo unspecified) | 0.2
CCC(Oc1ccccc1)C(=O)N1CCN(C(=O)C(CC)Oc2ccccc2)CC1 (stereo unspecified) | 8.9
O=C(Cc1ccc(-c2ccccc2)cc1)NNC(=O)c1ccco1 | -13.5
O=C(c1cccc(Cl)c1)N1CCN(c2ccccn2)CC1 | -8
O=C1C(=O)N(c2cccnc2)C(c2ccc(Cl)cc2)/C1=C(\O)c1ccc(Cl)cc1 (stereo unspecified) | 1
Cc1ccccc1CC1S/C(=N\N=C\c2ccc(N(C)C)cc2)NC1=O (stereo unspecified) | 18.1
CC(C)CCSc1nc2ccccc2[nH]1 | 10.5
CCOCCOC(=O)C1=C(C)NC2=C(C(=O)CC(C)(C)C2)C1c1cccc(Cl)c1Cl (stereo unspecified) | 3.1
O=C(Nc1c[nH]c(=O)[nH]c1=O)c1ccc2c(c1)C(=O)N(c1ccccc1-c1ccccc1)C2=O | 19.1
Cc1ccc(N(CC(=O)NCCSc2ccccn2)S(=O)(=O)c2ccc(F)cc2)cc1 | 2.7
Cc1cccc(NC(=O)CN(c2ccc(Br)cc2)S(=O)(=O)c2ccccc2)c1C | -1.1
CN1C(c2ccccc2)CC(O)(c2ccccc2)CC1c1ccccc1 (stereo unspecified) | 12.8
O=C(Nc1c(-c2cccs2)nc2ccc(Cl)cn12)c1ccc(Cl)cc1 | 6.7
CCOc1cc(C(=O)Nc2ccc(N3CCN(C(C)=O)CC3)cc2)cc(OCC)c1OCC | 6.9
CCOc1ccc(C(=O)Nc2cc(C(=O)O)cc(C(=O)O)c2)cc1 | -9.1
COc1cc(/C=C2/C(C)=C(C#N)c3nc(N)c(C#N)c(C)c32)ccc1O | 19.6
CCCCNCCCCCOc1c(Cl)cccc1Cl | 13.1
Cn1cnc2c1c(=O)n(Cc1ccccc1F)c(=O)n2C | 7.5
O=C(/C=C1/Nc2ccccc2NC1=O)Nc1cccc(C(F)(F)F)c1 | 8.5
COc1ccc(/C=C/C(=O)c2ccc3c(c2)OCCO3)c(OC)c1 | -6.7
COc1ccc(NC(=O)c2c(Cl)ccc(Cl)c2OC)c(OC)c1 | 1.7
NC(=O)c1ccccc1NC(=O)c1ccccc1I | 11.5
Cc1ccccc1-c1cc(C(=O)N2CCOCC2)c2ccccc2n1 | 4

SMILES | displacement [%]
O=C(CC(c1ccccc1)c1ccccc1)N1CCCCC1 | -7.2
Cc1ccc(OCC(=O)Nc2ccc3c(c2)OCO3)c(Br)c1 | 8.7
CCOC(=O)c1c(N)c(C#N)n2c1CCC2 | 3.7
Cc1ccc(NC(=O)/C(C#N)=C\c2cc(Br)cc(Br)c2O)c(C)c1 | 2
O=C(c1ccccc1I)N1CCN(c2ccc(F)cc2)CC1 | -6.4
CCOC(=O)C1C(=O)C=C(c2ccc(OC)cc2)CC1c1ccccc1 (stereo unspecified) | 0.4
COc1ccc(S(=O)(=O)NC2CCCCC2)cc1Br | 3.5
COC(=O)c1c(NC(=O)C2CC=CCC2C(=O)O)sc2c1CCC(C)C2 (stereo unspecified) | -10.4
O=C(Nc1nc(-c2ccc3ccccc3c2)cs1)c1cc(Cl)ccc1Cl | -5.9
Cc1ccc(C(=O)/C=C/c2ccc(-c3cccc(Cl)c3)o2)cc1 | -38.8
CS(=O)(=O)c1ccc2nc(NC(=O)c3ccccc3)sc2c1 | 10.7
CCc1ccccc1NC1=C(Cl)C(=O)N(c2ccccc2Cl)C1=O | 1.9
Fc1ccc(NC(=S)N2CCN(c3cccc(C(F)(F)F)c3)CC2)cc1 | 0.8
CC(C(=O)Nc1ccc(NC(=O)c2ccco2)cc1)(c1ccccc1)c1ccccc1 | -5.1
COc1ccc(CCNC2CC(=O)N(c3ccc(C)cc3)C2=O)cc1OC (stereo unspecified) | 2.4
C=CCNC(=S)N1CCN(CCNC(=O)C(=O)Nc2ccc(C)cc2)CC1 | 5.5
Cc1ccccc1CNC(=O)c1ccc(CN(c2ccccc2)S(C)(=O)=O)cc1 | 3.9
O=C(Nc1ccccc1OC(=O)c1ccc(Cl)cc1)c1ccc(Cl)cc1 | 19.1
Cc1ccc(-c2csc(NC(=O)c3ccc([N+](=O)[O-])cc3Cl)n2)c(C)c1 | -7.2
CCOc1cc(/C=N\NC(=O)c2ccc([N+](=O)[O-])cc2)cc(Br)c1O | 4.8
CNC(=O)C(=O)NCCc1ccccc1 | 6.5
FC(F)(F)c1cc(/C=C/c2ccccc2)n[nH]1 | 15.5
CCOc1ccc(CNCc2ccccc2OC)cc1 | -16.7
